We go through 42 molecules from ChEMBL document CHEMBL4888484, “Replenishing the malaria drug discovery pipeline: Screening and hit evaluation of the MMV Hit Generation Library 1 (HGL1) against asexual blood stage Plasmodium falciparum ,using a nano luciferase reporter read-out” (2022).

The structures appear in SMILES notation. In all, about 150,000 compounds went through this assay and about 540 (0.36%) showed an effect of 50% or more. This is one part of the list.

The test system of the assay is Plasmodium falciparum. Briefly: Primary screen in NF54 nanoGlo assay, in single point, at 2uM, 72h; a lower Z score goes with more inhibition. It is filed as functional, Erythrocyte. As to conditions: timepoint 72 hour.
On to `O=C1NC2(CCCCCCC2)C(=O)N1Cc1cccc(Cl)c1`, for which the “% Inhibition” value amounted to 4% and the Z score is given as -0.8.
In the case of `CN(c1ccc(NC(=O)N2CCC[C@H](O)C2)cc1F)C1CCCCC1`, the “% Inhibition” value is on record as -13% and the Z score is 1.72.
Consider `CC(C)[C@@H](NC(=O)C1COc2ccccc2O1)C(=O)Nc1nccs1` (some centres undefined), for which the “% Inhibition” value came out at 4% and the Z score is on record as -0.56.
For `CN(C)c1nn(CC(=O)N2CCN(c3ccccc3)CC2)cc1-c1ccccc1`, in that order: -4% and 0.62.
For `O=C1C[C@@H](c2ccccc2)N(S(=O)(=O)c2ccc(F)c(C(F)(F)F)c2)CCN1`, in that order: -11% and 1.41.
For `COc1ccc(O[C@@H](C(=O)Nc2ccc(C)c(C)c2)c2ccccc2)cc1`, the “% Inhibition” value is -10% and the Z score came out at 1.4.
The corresponding values for `CCc1oc2ccccc2c1C(=O)N1CC[C@H](O)C1(C)C` are -2% and 0.24.
For `N#CCN1CCC(CNC(=O)[C@H]2CCCOC2)CC1`, the “% Inhibition” value is listed as -3% and the Z score came out at 0.55.
The corresponding values for `CC1CN(CC(O)Cn2ccnc2C(C)C)CC(C)O1` (centres undefined) are -5% and 0.61.
The corresponding values for `COCCc1nnc(NC(=O)c2ccc3c(c2)CCCC3)o1` are -11% and 1.3.
With `O=C(c1ccc(-n2cccn2)cc1)N1CCN(c2ccccc2O)CC1`, the “% Inhibition” value is reported as 36% and the Z score is recorded as -1.02.
For `CN(C)C(N)=NCCCc1ccccc1`, in that order: 11% and -2.05.
Consider `CC(C)COCC(O)CN(Cc1ccc(F)cc1)CC1CC(c2ccccc2)=NO1` (centres undefined), for which the “% Inhibition” value was -15% and the Z score was 2.15.
The corresponding values for `COCCN(CC(=O)N(C)C)c1ncnc2c1ncn2CC1(CO)CCOCC1` are -2% and 0.23.
For `CCc1ccccc1C(=O)N(C)CC1(CO)CCC1`, in that order: -13% and 2.51.
For `C=C(C)CN(CC)C(=O)c1cn([C@@H](C)CC)cc(C(=O)NCc2ccco2)c1=O`, in that order: -8% and 1.17.
With `CN1CCN(C(=O)[C@H](C(=O)c2cccc(Cl)c2)n2ccccc2=O)CC1`, the “% Inhibition” value is 35% and the Z score is on record as -4.46.
For `Cc1nc2cc(CNC(=O)NC3CCCCC3)ccc2n1C`, in that order: 0% and -0.02.
Turning to `O[C@H](c1cccnc1)c1ccc2c(c1)CNCCO2`, the “% Inhibition” value was -4% and the Z score is recorded as 0.74.
The corresponding values for `COc1ccccc1OCC(=O)Nc1cc(-c2ccccn2)no1` are -13% and 1.26.
Take `COC(=O)NC1(CCC(=O)O)CCCCC1`: the “% Inhibition” value is given as -9% and the Z score came out at 0.96.
The corresponding values for `CCc1cnc(CCNc2ncccc2C#N)s1` are -12% and 1.27.
For `CCOC(=O)C1=C(c2ccccc2)S/C(=C2/C(=S)C(C)(C)N(C(C)=O)c3ccc(OCC)cc32)S1`, the “% Inhibition” value is on record as -12% and the Z score was determined as 1.9.
As to `COCc1cc(CN[C@@H](C)C2(S(C)(=O)=O)CC2)ccc1F`, the “% Inhibition” value was -1% and the Z score is 0.23.
Regarding `CC(=O)N[C@H]1[C@H](Oc2ccccc2Cl)O[C@@H]2COC(c3ccco3)O[C@H]2[C@@H]1O` (some centres undefined), the “% Inhibition” value is recorded as -1% and the Z score is recorded as 0.23.
The corresponding values for `O=C(c1ccc(-c2nc(-c3ccc(Cl)cc3)no2)cc1)N1CCCCC1` are 2% and -0.17.
Turning to `NC(=O)C1CCN(C(=O)c2ccc3c(c2)N(Cc2ccccc2)C(=O)CO3)CC1`, the “% Inhibition” value is given as -12% and the Z score is given as 2.19.
Turning to `CC(O)CC(C)(C)CNC(=O)NC1CC1c1ccc(F)cc1F` (centres undefined), the “% Inhibition” value stood at 10% and the Z score is on record as -1.17.
`O=C(c1cn2ccccc2n1)N1CCN(C2CC2)CC1`: the “% Inhibition” value is recorded as -6% and the Z score came to 0.7.
Consider `CC1CN(C(=O)Cc2cnn(-c3ccccc3)n2)C(C)CO1` (centres undefined), for which the “% Inhibition” value is 2% and the Z score was -0.33.
For `Cc1ccn2c(NCc3cc(C#N)cs3)nnc2c1`, in that order: 6% and -0.77.
As for `Nc1c2c(nc3c1CCC3)CCCCC2`, the “% Inhibition” value was found to be 33% and the Z score is given as -3.72.
`O=C(CC1CCCC1)N1CCC(O)(Cn2cc(C(=O)N3CCOCC3)nn2)CC1`: the “% Inhibition” value is on record as 29% and the Z score is recorded as -3.26.
For `O=C(NCCc1ccncc1)c1[nH]nc2c1CCc1ccccc1-2`, in that order: -4% and 0.47.
The corresponding values for `O=C1CCCC[C@@H]1S(=O)(=O)N1CCC(C(F)F)CC1` are -4% and 0.95.
For `CC[C@H](C)N(CCc1nc(-c2ccc(OC)c(OC)c2)no1)C(=O)C1CCC1`, the “% Inhibition” value is -11% and the Z score is 1.48.
With `C[C@H]1C(=O)N(c2cccc3ccccc23)CCN1C(=O)Nc1ccccc1`, the “% Inhibition” value is reported as 9% and the Z score is -1.11.
`O=C1[C@@H]2CCCN2C(=O)N1Cc1c(Cl)cccc1Cl`: the “% Inhibition” value is -10% and the Z score came to 1.6.
The corresponding values for `CC(C)(C)[C@H](CO)CNC(=O)c1cnccn1` are -19% and 2.66.
Regarding `COC[C@H](C)N(C)C(=O)c1csc(NC(C)=O)n1`, the “% Inhibition” value is on record as -8% and the Z score was 1.5.
On to `CCc1ccnc(C(=O)N[C@@H]2C=C[C@H](CO)C2)c1`, for which the “% Inhibition” value is -14% and the Z score came to 2.53.
For `O[C@@H](CNc1cc(C(F)(F)F)ccn1)CN1CCCCC1`, in that order: -2% and 0.34.
